Source: PubChem BioAssay AID624417 (National Center for Advancing Translational Sciences (NCATS), 2012)
Out of some 410,000 compounds screened, about 6,400 (1.6%) were called active. The shares of active, inactive and inconclusive entries below differ from those in the screen. Calls come from the whole dose curve; as a rule, active = well fitted inhibition curve with a large enough effect; inconclusive = small, poorly fitted or top-dose-only effect; inactive = no such curve, though single readings can be large or run the other way. Potencies of inconclusive entries are left out as doubtful fits.

What follows are molecules tested against Glucagon-like peptide 1 receptor (Homo sapiens) (UniProt P43220) (assay: qHTS of GLP-1 Receptor Inverse Agonists (Inhibition Mode)). Details: HEK293 GLP-1R CRE-luciferase, luminescence, 24 h, GLP-1R form is constitutively active; series mostly up to 38.3 µM.
Sequence of UniProt P43220 (P43220 whole entry, looked up): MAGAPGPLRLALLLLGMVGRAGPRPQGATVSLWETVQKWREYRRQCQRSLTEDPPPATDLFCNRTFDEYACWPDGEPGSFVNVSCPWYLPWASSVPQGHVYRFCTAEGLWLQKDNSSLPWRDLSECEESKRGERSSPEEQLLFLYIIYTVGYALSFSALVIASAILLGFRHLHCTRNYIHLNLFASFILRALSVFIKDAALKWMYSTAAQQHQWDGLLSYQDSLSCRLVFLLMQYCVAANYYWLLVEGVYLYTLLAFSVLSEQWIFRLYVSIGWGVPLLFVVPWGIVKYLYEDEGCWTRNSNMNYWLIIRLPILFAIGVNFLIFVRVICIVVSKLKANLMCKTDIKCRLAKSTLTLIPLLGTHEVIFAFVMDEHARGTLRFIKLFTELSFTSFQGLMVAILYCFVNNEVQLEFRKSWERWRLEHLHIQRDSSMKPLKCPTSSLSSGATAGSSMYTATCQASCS
How it was run: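 Using stably transfected HEK293 (constitutively active GLP-1R, cAMP-luciferase reporter), compounds were incubated 24 hr and luciferase measured by luminescence.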
Note: nearly all actives have a fitted effect of over 55% in size.
Potency is the fitted concentration of half-maximal effect; tags give direction and shape of the fitted curve.

Structure (SMILES)	Potency
CCC(C(=O)OCC(=O)c1ccc(OC)cc1OC)c1ccccc1 (centres undefined)	inconclusive [inhibitor, single point]
COC(=O)c1sc(N)c(C(=O)OC)c1CSc1nnc(-c2ccccc2Cl)n1C	inconclusive [inhibitor, single point]
O=C(Cc1ccccc1)c1c[nH]c(C(=O)NCCCN2CCOCC2)c1	inactive
O=C(OCc1csc(Nc2ccccc2)n1)c1ccc(Cl)cc1	inconclusive [inhibitor, single point]
O=S(=O)(Nc1cccc(CCc2ccccn2)c1)c1ccc(Cl)cc1	inconclusive [inhibitor, single point]
CCc1cccc(C)c1NC(=O)COCc1cc(-c2ccc3c(c2)OCO3)on1	inactive
COc1ccccc1/C=C/[C@@H]1C[C@H]2CN(Cc3cccc(Cl)c3)C(=O)[C@]23CCCN13	inconclusive [inhibitor, partial curve, poor fit]
O=C1Nc2cc(C(=O)NCCCN3CCCC3)ccc2S/C1=C/c1cccc(Cl)c1	inconclusive [inhibitor, single point]
Cc1ccccc1CNCCCSc1nnnn1-c1ccccc1	inconclusive [inhibitor, single point]
O=C(NCC1CCCO1)C(c1cccs1)N(Cc1cccs1)C(=O)c1ccc(-c2ccccc2)[nH]1 (centres undefined)	inconclusive [inhibitor, partial curve, poor fit]
OCCC1CN(CCCc2ccccc2)CCN1Cc1ccccc1 (centres undefined)	inconclusive [inhibitor, partial curve, poor fit]
CCOC(=O)c1ccc(COc2ccc(C(C)C)cc2)o1	inconclusive [inhibitor, single point]
CCN1C(=O)c2ccccc2Sc2ccc(NC(=O)Nc3ccc(C(C)=O)cc3)cc21	inconclusive [inhibitor, partial curve, poor fit]
Cc1ccc(C(=O)NC(C)C(c2cccs2)N2CCOCC2)cc1C (centres undefined)	inactive
CCOC(=O)Cc1csc(NC(=O)CCN2C(=O)c3ccccc3C2=O)n1	inactive
O=c1c2c3c(sc2nc(NCCO)n1CCc1ccccc1)CCCCC3	inconclusive [inhibitor, full curve, poor fit]
CC(=O)c1sc(Nc2ccc(Oc3ccccc3)cc2)nc1C	inconclusive [inhibitor, single point]
COc1ccc(NC(=S)N(CCCN2CCOCC2)C(C)c2cc3ccccc3o2)cc1 (centres undefined)	inconclusive [inhibitor, partial curve, poor fit]
COc1ccc(N2CCN(C(=O)c3cccn4c(=O)c5ccc(Cl)cc5nc34)CC2)cc1	inactive
COc1cccc(C(=O)Nc2cc([N+](=O)[O-])ccc2N2CCN(C)CC2)c1	inactive
C=CCn1cc(C(=O)NCc2ccco2)c(=O)c2cc(S(=O)(=O)N3CCCCCC3)ccc21	inconclusive [inhibitor, single point]
CCOc1cccc(CNCCO)c1OCc1ccc(Cl)cc1Cl	inconclusive [inhibitor, single point]

Structure (SMILES)	Potency
Cc1nc2ccccc2c(=O)n1/N=C/c1ccc(C(C)C)cc1	inconclusive [inhibitor, single point]
COc1ccccc1N(C)S(=O)(=O)c1ccc(C(=O)N(C)Cc2cccc(F)c2)cc1	inconclusive [inhibitor, single point]
CC(C)CCn1nnnc1C(c1ccc(F)cc1)N1CCN(C(=O)c2ccco2)CC1 (centres undefined)	inconclusive [inhibitor, single point]
Cc1cccc(-n2ncc3c(N4CCCc5ccccc54)ncnc32)c1	inactive
Cc1cc(C)c(C)c(S(=O)(=O)N2CCSCC2)c1C	active: 10 µM
CC(=O)Nc1ccc(Nc2nc3ccc(C)cc3n3nnnc23)cc1	inactive
CC(OC(=O)Cc1coc2ccc3ccccc3c12)C(=O)Nc1ncc(Cl)cc1Cl (centres undefined)	inconclusive [inhibitor, single point]
CCOCCCNC(=O)C(c1ccc(Cl)cc1)N(Cc1ccc2c(c1)OCO2)C(=O)c1ccccc1O (centres undefined)	inconclusive [inhibitor, partial curve, poor fit]
O=C(NCc1ccc2c(c1)OCO2)C1CCN(S(=O)(=O)c2ccc(Br)s2)CC1	inconclusive [inhibitor, partial curve, poor fit]
COc1ccc(-c2cc(-c3ccc(OC)c(OC)c3)n[nH]2)c(O)c1	inconclusive [inhibitor, single point]
O=C(CCNS(=O)(=O)c1ccc(Br)s1)NCc1ccc2c(c1)OCO2	inconclusive [inhibitor, single point]
Brc1ccc2nc(-c3ccccc3)c(Cc3ccccc3)n2c1	inactive
Cc1cccc(C)c1Cn1c(C)c(C(=O)NCc2ccccc2C(F)(F)F)sc1=O	inconclusive [inhibitor, partial curve]
O=Cc1[nH]c2ccccc2c1N(C(=O)CCl)c1ccc([N+](=O)[O-])cc1	inconclusive [inhibitor, partial curve, poor fit]
C=CCC(NC(=O)N(C)C)(C(C)=O)C(=O)OC (centres undefined)	inactive
Clc1ccc2c(c1)C(C1=NCCN1)c1ccccc1CS2 (centres undefined)	active: 3.16 µM
Cc1cccc(NC(=O)c2ccc(F)c(S(=O)(=O)N(C)C3CCCCC3)c2)c1	inconclusive [inhibitor, partial curve, poor fit]
Cc1nn(C)c(C(=O)NC(=S)Nc2ccc([N+](=O)[O-])cc2)c1Cl	inconclusive [inhibitor, single point]
Cc1ccc(S(=O)(=O)Cn2nnnc2C(C(C)C)N2CCN(Cc3ccco3)CC2)cc1 (centres undefined)	inconclusive [inhibitor, single point]
Cc1ccc(S(=O)(=O)N(CC(=O)NC2CC3CCC2C3)c2ccccc2)cc1 (centres undefined)	inconclusive [inhibitor, single point]
C[C@@H]1CN([C@@H](C)CO)C(=O)c2cc(C#CC3CCCCC3)cnc2O[C@@H]1CN(C)S(=O)(=O)c1ccc(F)cc1	inconclusive [inhibitor, partial curve, poor fit]
Cc1ccc2nc(-c3c[nH]c4ccccc34)c(Nc3ccccc3)n2c1	inconclusive [inhibitor, single point]

Structure (SMILES)	Potency
Cc1coc2c1c(C)cc1oc(=O)c(CC(=O)NCc3ccc(Cl)cc3)c(C)c12	inactive
CC(C)NC(=O)C1C(c2ccc(C(F)(F)F)cc2)=Nc2ccccc2N1C(=O)c1ccccc1 (centres undefined)	inconclusive [inhibitor, single point]
CCc1nc(Nc2cccc(O)c2)c2oc3ccccc3c2n1	inconclusive [inhibitor, single point]
Cc1ccc(C(C)C)c(OCC(=O)Nc2nc3c(s2)CCCC3)c1	inconclusive [inhibitor, full curve, poor fit]
COc1ccc(S(=O)(=O)Nc2cc(-c3cn4cccc(C)c4n3)ccc2C)cc1C	inconclusive [inhibitor, single point]
O=C(COc1ccc(F)cc1)Nc1nnc(-c2ccncc2)s1	inactive
Cc1ccc(CSc2nnc(CNc3ccc(F)cc3)o2)cc1	inconclusive [inhibitor, single point]
Oc1cccc(/C=N/N2CCN(C3c4ccccc4-c4ccccc43)CC2)c1	inconclusive [inhibitor, partial curve, poor fit]
CC1SC(c2ccccc2)N(CC(O)c2ccc([N+](=O)[O-])cc2)C1=O (centres undefined)	inconclusive [inhibitor, partial curve, poor fit]
Cc1cc(C(=O)Nc2ccc3c(c2)OCCO3)ccc1[N+](=O)[O-]	inactive
CN(C)S(=O)(=O)N(CC(=O)N1CCOCC1)c1ccccc1	inactive
CCc1c(O)cc(=O)n(-c2ccccc2)c1-c1ccccc1	inconclusive [inhibitor, partial curve, poor fit]
COc1ccc(-c2cc(C(=O)N3CCN(c4ccccc4)CC3)c3ccccc3n2)cc1	inconclusive [inhibitor, partial curve, poor fit]
O=C(Nc1cccc(C(F)(F)F)c1)c1ccc(N2CCNCC2)c([N+](=O)[O-])c1	inconclusive [inhibitor, partial curve, poor fit]
CC/C(=N\NC(=O)CNC(=O)/C=C/c1ccc(OC)cc1)c1ccccc1	inconclusive [inhibitor, partial curve, poor fit]
COc1cc(OC)cc(-c2c(-c3cccs3)c3cc(Br)ccc3n2C)c1	inconclusive [inhibitor, partial curve, poor fit]
CCOc1ccccc1N1CCN(Cc2cccc(OC)c2OC)CC1	inactive
O=C(Nc1ccccc1N1CCOCC1)c1csc2c1CCCC2	inconclusive [inhibitor, partial curve, poor fit]
CCOC(=O)C1(Cc2ccccc2C(F)(F)F)CCN(Cc2ccc(COC)o2)CC1	inconclusive [inhibitor, partial curve, poor fit]
COc1cc(C)ccc1OCCOCCN(C)Cc1ccccc1	inconclusive [inhibitor, partial curve, poor fit]
